Reference: the supplement of paper PMC9446081
Screen size: about 39,000 compounds; about 220 (0.56%) showed activity. The list shows a part of the results.

Each compound was assayed on Escherichia coli K-12 BW25113 (assay: relative growth (OD600 normalised to plate interquartile mean) (fraction); higher = less growth inhibition, active = 0.2 or less). Settings: 50 µM; LB; incubation time: overnight (16-24 h).
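Note: static incubation at 37 °C against the wild-type strain, values averaged over two biological replicates.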

SMILES | relative growth
COc1ccc(S(=O)(=O)Nc2ccc3c(c2)CC(=O)N([C@@H](C)CO)C[C@@H](C)[C@H](CN(C)S(=O)(=O)c2ccc(F)cc2)O3)cc1 | inactive: 0.997
Cc1cc2c(o1)CC(C)(C)CC2=O | inactive: 0.973
C[C@@H]1CN([C@H](C)CO)C(=O)c2cc(NC(=O)Cn3cnnn3)ccc2O[C@H]1CN(C)Cc1ccc2c(c1)OCO2 | inactive: 0.968
O=C(O)CN1CCCCCC1=O | inactive: 0.981
O=c1c(O)c(-c2ccccc2)oc2cc(O)ccc12 | inactive: 1.08
C[C@H]1CN([C@@H](C)CO)S(=O)(=O)c2ccc(Br)cc2O[C@H]1CN(C)C(=O)NC1CCCCC1 | inactive: 0.964
COc1ccc(-c2coc3cc(OC)cc(OC)c3c2=O)cc1 | inactive: 0.852
C[C@H](CO)N1C[C@H](C)[C@H](CN(C)Cc2ccc(C(F)(F)F)cc2)Oc2ccc(NC(=O)Nc3cccc4ccccc34)cc2C1=O | inactive: 1
C[C@@H]1CN([C@@H](C)CO)C(=O)Cc2cc(NC(=O)CCCCCC(=O)Nc3ccccc3N)ccc2O[C@H]1CN(C)C(=O)Nc1ccc(F)cc1 | inactive: 0.979
C[C@H](CO)N1C[C@H](C)[C@@H](CN(C)Cc2ccccc2)OCCCC[C@H](C)Oc2ccc(NC(=O)Nc3ccc(F)cc3)cc2C1=O | inactive: 1.01
COc1ccccc1C#Cc1cnc2c(c1)C(=O)N([C@H](C)CO)C[C@@H](C)[C@H](CN(C)C(=O)CN(C)C)O2 | inactive: 1.01
C[C@H]1CN([C@@H](C)CO)C(=O)Cc2cc(NC(=O)Nc3ccc(C(F)(F)F)cc3)ccc2O[C@H]1CN(C)Cc1ccc(-c2ccccc2)cc1 | inactive: 1.02
CC1(C)SC2C(NC(=O)C(N)c3ccccc3)C(=O)N2C1C(=O)[O-].[Na+] (centres undefined) | inactive: 1.06
C[C@@H]1CCCCO[C@@H](CN(C)C(=O)Nc2ccccc2)[C@@H](C)CN([C@H](C)CO)C(=O)c2cc(NS(=O)(=O)c3ccccc3)ccc2O1 | inactive: 1.01
O=C(C[C@H]1CC[C@@H]2[C@H](COC[C@@H](O)CN2C(=O)c2ccccn2)O1)NC1CCC1 | inactive: 0.98
NC(=O)NCCCC(N)C(=O)O (centres undefined) | inactive: 1.07
C[C@@H]1CN([C@H](C)CO)C(=O)c2cccc(NS(=O)(=O)c3ccc(F)cc3)c2O[C@H]1CN(C)S(=O)(=O)c1ccc(F)cc1 | inactive: 1
C[C@H](CO)N1C[C@H](C)[C@@H](CN(C)C(=O)Nc2ccccc2)Oc2c(NS(C)(=O)=O)cccc2C1=O | inactive: 0.902
COc1cccc(NC(=O)N[C@@H]2C=C[C@H](CC(=O)N3CCN(C)CC3)O[C@@H]2CO)c1 | inactive: 1.01
C[C@@H]1CN([C@@H](C)CO)C(=O)c2cccc(NC(=O)c3cnccn3)c2O[C@H]1CN(C)Cc1ccncc1 | inactive: 1
C=CCC[C@@H](Cc1ccc(F)cc1)C(=O)OC[C@@H]1CCCN1C(=O)[C@H](CC=C)CC(=O)N(CCO)Cc1ccccc1 | inactive: 1.03
COC(=O)CCCCCCC(=O)Nc1ccc([C@H]2O[C@@H](CSc3nc(-c4ccccc4)c(-c4ccccc4)o3)C[C@H](c3ccc([N+](=O)[O-])cc3)O2)cc1 | inactive: 1

SMILES | relative growth
CC(C)NC(=O)Nc1ccc2c(c1)C(=O)N([C@H](C)CO)C[C@@H](C)[C@@H](CN(C)CC1CCCCC1)OCCCC[C@@H](C)O2 | inactive: 1.01
C[C@H]1CN([C@@H](C)CO)C(=O)c2cccc(NC(=O)Nc3cccc4ccccc34)c2O[C@H]1CN(C)C(=O)Nc1ccc2c(c1)OCO2 | inactive: 1.03
C[C@@H]1CCCCO[C@@H](CN(C)S(=O)(=O)c2cccs2)[C@H](C)CN([C@@H](C)CO)C(=O)c2cc(NS(=O)(=O)c3ccc(Cl)cc3)ccc2O1 | inactive: 1.04
C[C@H](CO)N1C[C@H](C)[C@H](CN(C)S(=O)(=O)c2cccc(F)c2)Oc2ncc(C#CC3(O)CCCC3)cc2C1=O | inactive: 1.01
C[C@@H]1CN([C@@H](C)CO)C(=O)c2ccccc2-c2ccccc2CO[C@@H]1CN(C)C(=O)Nc1ccc(F)cc1 | inactive: 0.974
C[C@H]1CCCCO[C@@H](CN(C)C(=O)Nc2ccc(C(F)(F)F)cc2)[C@@H](C)CN([C@@H](C)CO)C(=O)c2cc(NC(=O)CCC(F)(F)F)ccc2O1 | inactive: 1
O=C(C[C@@H]1C=C[C@H](NC(=O)CN2CCOCC2)[C@@H](CO)O1)NCc1cccc(F)c1 | inactive: 1.02
CCCNC1CCc2nc(N)sc2C1.Cl.Cl (centres undefined) | inactive: 0.934
COc1ccc(S(=O)(=O)Nc2ccc3c(c2)CC(=O)N([C@H](C)CO)C[C@H](C)[C@@H](CN(C)S(=O)(=O)c2ccc(F)cc2)O3)cc1 | inactive: 0.982
COc1ccc(NC(=O)N(C)C[C@@H]2OCCCC[C@H](C)Oc3ccc(NC(=O)Cc4ccccc4)cc3C(=O)N([C@H](C)CO)C[C@H]2C)cc1 | inactive: 0.984
COc1ccc(CN(C)C[C@@H]2Oc3ccc(NS(=O)(=O)c4cn(C)cn4)cc3C(=O)N([C@@H](C)CO)C[C@@H]2C)cc1 | inactive: 0.992
Cc1noc(C)c1NC(=O)Nc1ccc2c(c1)CC(=O)N([C@@H](C)CO)C[C@@H](C)[C@H](CN(C)Cc1ccc(Oc3ccccc3)cc1)O2 | inactive: 1.06
COC(=O)c1c(CC[C@@H](CO)NC(=O)NCCn2cc(C3(O)CCCC3)nn2)oc(C(C)=O)c1C(=O)OC | inactive: 0.982
Cc1ccc(S(=O)(=O)Nc2cccc3c2O[C@@H](CN(C)S(=O)(=O)c2ccccc2)[C@H](C)CN([C@@H](C)CO)C3=O)cc1 | inactive: 0.982
Cc1ccc(S(=O)(=O)Nc2cccc3c2O[C@@H](CN(C)S(C)(=O)=O)[C@@H](C)CN([C@H](C)CO)C3=O)cc1 | inactive: 0.969
COCC(=O)NCc1cc(=O)n2c(n1)CN(c1ncccn1)CCC2 | inactive: 1.01
CC(C)N1C[C@H](C)[C@@H](CN(C)Cc2ccc(Oc3ccccc3)cc2)Oc2c(NC(=O)C3CCNCC3)cccc2C1=O | inactive: 0.958
Nc1nnc(-c2ccc([N+](=O)[O-])o2)o1 | inactive: 0.258
CC1=CC(=O)C2=C(C)CCC3C(C)C(=O)OC3C12 (centres undefined) | inactive: 0.758
COc1ccc(NC(=O)Nc2ccc3c(c2)C(=O)N([C@@H](C)CO)C[C@@H](C)[C@H](CN(C)C(=O)Nc2cccc4ccccc24)OCCCC[C@H](C)O3)cc1 | inactive: 1.03
C[C@@H]1CN([C@@H](C)CO)C(=O)c2cccc(NS(=O)(=O)c3cccs3)c2O[C@H]1CN(C)Cc1ccc(-c2ccccc2)cc1 | inactive: 0.997
C[C@H]1CCCCO[C@H](CN(C)C(=O)Cc2ccccc2)[C@@H](C)CN([C@@H](C)CO)C(=O)c2cc(NC(=O)C3CCCCC3)ccc2O1 | inactive: 0.966

SMILES | relative growth
O=C(Nc1ccc(Oc2ccc(Cl)cc2)c(Cl)c1)c1cc(I)cc(I)c1O | inactive: 0.987
COc1ccc(NC(=O)Nc2ccc3c(c2)C(=O)N([C@H](C)CO)C[C@@H](C)[C@H](CN(C)S(=O)(=O)c2ccccc2)OCCCC[C@@H](C)O3)cc1 | inactive: 1
COc1cccc(S(=O)(=O)N(C)C[C@@H]2Oc3ncc(C#CC(C)C)cc3C(=O)N([C@H](C)CO)C[C@H]2C)c1 | inactive: 1.03
C[C@@H]1CN([C@@H](C)CO)C(=O)c2cc(NC(=O)Nc3ccc(C(F)(F)F)cc3)ccc2O[C@H]1CN(C)Cc1ccc2c(c1)OCO2 | inactive: 0.964
OC[C@@H](O)CN1CCN(c2ccccc2)CC1 | inactive: 1.02
NC1(C(=O)N2CCCN(S(=O)(=O)c3ccccc3)CC2)Cc2ccccc2C1 | inactive: 0.992
O=C(NC1CCC1)[C@H]1[C@H](CO)[C@H]2Cn3c(cccc3=O)[C@H]2N1CC1CCOCC1 | inactive: 0.995
Cc1cncc2cccc(S(=O)(=O)NCCCN(C/C=C/c3ccc(Br)cc3)C/C=C/c3ccc(Br)cc3)c12 | inactive: 0.988
O=C(C[C@@H]1C[C@H]2c3cc(NC(=O)c4ccc5c(c4)OCO5)ccc3O[C@H]2[C@H](CO)O1)NCCc1ccccc1 | inactive: 1
C[C@H](CO)N1C[C@H](C)[C@H](CN(C)Cc2ccc3c(c2)OCO3)Oc2ccc(NC(=O)CCCN(C)C)cc2C1=O | inactive: 1.01
C[C@@H]1CN([C@H](C)CO)C(=O)c2cc(C#Cc3ccc(F)cc3)cnc2O[C@H]1CN(C)Cc1ccccn1 | inactive: 0.986
O=C(C[C@@H]1C[C@H]2c3cc(NS(=O)(=O)c4ccc(F)cc4)ccc3O[C@H]2[C@H](CO)O1)NCc1ccccc1F | inactive: 0.991
C[C@H](CO)N1C[C@H](C)[C@H](CN(C)Cc2ccc(F)cc2)Oc2cc(C#CCN(C)C)ccc2S1(=O)=O | inactive: 0.975
C[C@@H]1CN([C@@H](C)CO)C(=O)c2cc(NC(=O)NC3CCCCC3)ccc2O[C@@H](C)CCCCO[C@H]1CN(C)Cc1ccc(C(=O)Nc2ccccc2N)cc1 | inactive: 0.976
C[C@@H]1CN([C@H](C)CO)C(=O)c2cc(NS(=O)(=O)c3ccc(F)cc3)ccc2O[C@@H]1CN(C)CC1CC1 | inactive: 1.01
Nc1ncccc1O | inactive: 1.03
NC[C@H]1OB(O)c2c(OCCCO)cccc21 | active: 0.04
C[C@@H]1CN([C@@H](C)CO)C(=O)c2cc(NC(=O)Cc3cn(C)c4ccccc34)ccc2O[C@H]1CN(C)S(=O)(=O)c1cn(C)cn1 | inactive: 0.974
COc1ccc(S(=O)(=O)N[C@H]2C=C[C@@H](CC(=O)N3CCN(c4ccccc4)CC3)O[C@@H]2CO)cc1 | inactive: 1.01
COc1ccc(NC(=O)N(C)C[C@H]2OCCCC[C@H](C)Oc3ccc(NC(=O)Nc4ccccc4)cc3C(=O)N([C@@H](C)CO)C[C@H]2C)cc1 | inactive: 1.01
